Measured values published in patent US12559464B2, “Quinazolinone dione compounds and uses thereof” (Edgewise Therapeutics, Inc., priority 2023, dated 2026).
At least one compound was matched to its structure with a doubt left.

How the values were obtained:
[1] = biological target: T1, myosin ATPase, Porcine Ventricle myofibrils (Sus scrofa, UniProt P79293); assay: Myofibril ATPase assay, porcine ventricle myofibrils; format: biochemical, porcine (Yucatan minipigs); settings: concentration required to reduce myosin ATP-ase activity by 25%; Porcine Ventricle Prep pCa 25 GEOM_MEAN
T1 construct: Myofibrils from porcine cardiac muscle was isolated from the left ventricle of Yucatan minipigs; tissue Exemplar Genetics; host or cells: left ventricle of Yucatan minipigs, myofibrils
Method: (§1) Myofibril ATPase assays are known in the art to be useful in evaluating small molecules for the treatment of HCM and other cardiac indications. Myosin ATPase activity is assessed by using a coupled reaction system, in which ADP generated by the myosin ATPase function is coupled to the disappearance of NADH through the pyruvate kinase/lactate dehydrogenase (PK-LDH) system. ATPase activity produces ADP, which is used as a substrate for PK to produce pyruvate and regenerate ATP. The pyruvate is then used as a substrate by LDH to oxidize NADH to NAD+. The rate of the reaction is monitored through the time-dependent disappearance of NADH using absorbance at 340 nm, which, when the couple system is in stoichiometric excess, is directly correlated to the ATPase activity of the myosin. Inhibition of ATPase activity by the assayed compounds is indicated by a reduced rate of NADH loss, relative to vehicle-treated controls, over the experimental time window. Porcine Ventricle are the primary sources of myofibril material.
(§2) Materials: The following stock solutions and reagents were used in the Myofibril ATPase Assay: Stock Solutions; PIPES, 200 mM and 120 mM in H2O, pH 7.0; MgCl2 in H2O, 200 mM; PM12 Buffer, 10×: 120 mM PIPES (from 200 mM stock), 20 mM MgCl2 (from 200 mM stock); PBS Buffer, 1X: 135 mM NaCl, […], 10 mM Na(PO4)2, 1.8 mM K2(PO4), pH 7.4; EGTA in H2O, 250 mM; CaCl2) in H2O, 500 mM; DTT in H2O, 1 M; BSA in H2O, 10 mg/mL; ATP in 1×PBS, 50 mM; NADH in 1X PM12 and 1 mM DTT, 26 mM; PEP in 1X PM12, 78 mM, pH 7.0.
(§3) Stock Solutions of pCa buffer. Combine PIPES, CaCl2, and EGTA solutions with water. Adjust pH to 7.0 and bring final volume to 100 mL.
(§4) Buffer A & Buffer B. Prepare buffers A and B according to the table below.
(§5) Myofibril ATPase Assay Procedure: BSA, ATP, NADH, PEP, and DTT solutions were thawed at room temperature, then transferred to ice. Pellet-frozen myofibrils were transferred with approximately twice the required volume into a sufficiently large tube and capped. Myofibrils were thawed by rolling in a water bath for approximately 15 min at room temperature and cooled on ice. Buffers A and B were prepared by adjusting volumes as necessary for required number of wells and stored on ice. 0.5 μL of the compounds to be assayed were added into wells. 25 μL of Buffer A was dispensed into the wells, followed by 25 μL of Buffer B. The wells were measured for absorbance at 340 nm, using a kinetic protocol in which the wells are read every 1.5-2 min for 75 min. Assay data analysis was performed using a python script that filtered the raw data to retain those points falling between a starting and ending time and between a maximum and minimum absorbance, then used the filtered time-domain 340 nm absorbance data in each well to calculate a slope via linear regression analysis in units of mAU/min. Compound slopes were normalized between 100% and 0% activity, where 100% represented the slope of wells containing only compound vehicle, and fit to a 4-parameter logistic model. In addition to the fit parameters, the EC25% values were calculated, relative to the 100% normalized value. Additionally, the Y125 values were calculated for compounds that increased myosin ATP-ase activity. Fit parameters, calculated effective concentrations, filtered raw data, and calculated slopes were exported, in addition to compound-specific graphs of normalized ATPase activity versus concentration in μM. Each value reported in Table 8 is either a Y75 value or a Y125 value. Values without pound sign, #, are Y75 values, which reflect the concentration required to reduce myosin ATP-ase activity by 25% (e.g., Y-axis activity value is 75% of initial value), relative to myosin ATP-ase activity in the absence of exogenous compound. […]

[2] = test system: myosin ATPase, Porcine Atria myofibrils; assay: Myofibril ATPase assay, porcine atria myofibrils; format: biochemical; settings: concentration required to reduce myosin ATP-ase activity by 25%; Porcine Atria Prep pCa 25 GEOM_MEAN
[3] = test system: myosin ATPase, Rabbit Psoas myofibrils; assay: Myofibril ATPase assay, rabbit psoas (skeletal) myofibrils; format: biochemical; settings: concentration required to reduce myosin ATP-ase activity by 25%; Rabbit Psoas Prep pCa 25 GEOM_MEAN
Method: [Worded in the source for another species; this species is reported under the same test.] as §1, §2, §3, §4, §5

T1 sequence (P79293 whole entry): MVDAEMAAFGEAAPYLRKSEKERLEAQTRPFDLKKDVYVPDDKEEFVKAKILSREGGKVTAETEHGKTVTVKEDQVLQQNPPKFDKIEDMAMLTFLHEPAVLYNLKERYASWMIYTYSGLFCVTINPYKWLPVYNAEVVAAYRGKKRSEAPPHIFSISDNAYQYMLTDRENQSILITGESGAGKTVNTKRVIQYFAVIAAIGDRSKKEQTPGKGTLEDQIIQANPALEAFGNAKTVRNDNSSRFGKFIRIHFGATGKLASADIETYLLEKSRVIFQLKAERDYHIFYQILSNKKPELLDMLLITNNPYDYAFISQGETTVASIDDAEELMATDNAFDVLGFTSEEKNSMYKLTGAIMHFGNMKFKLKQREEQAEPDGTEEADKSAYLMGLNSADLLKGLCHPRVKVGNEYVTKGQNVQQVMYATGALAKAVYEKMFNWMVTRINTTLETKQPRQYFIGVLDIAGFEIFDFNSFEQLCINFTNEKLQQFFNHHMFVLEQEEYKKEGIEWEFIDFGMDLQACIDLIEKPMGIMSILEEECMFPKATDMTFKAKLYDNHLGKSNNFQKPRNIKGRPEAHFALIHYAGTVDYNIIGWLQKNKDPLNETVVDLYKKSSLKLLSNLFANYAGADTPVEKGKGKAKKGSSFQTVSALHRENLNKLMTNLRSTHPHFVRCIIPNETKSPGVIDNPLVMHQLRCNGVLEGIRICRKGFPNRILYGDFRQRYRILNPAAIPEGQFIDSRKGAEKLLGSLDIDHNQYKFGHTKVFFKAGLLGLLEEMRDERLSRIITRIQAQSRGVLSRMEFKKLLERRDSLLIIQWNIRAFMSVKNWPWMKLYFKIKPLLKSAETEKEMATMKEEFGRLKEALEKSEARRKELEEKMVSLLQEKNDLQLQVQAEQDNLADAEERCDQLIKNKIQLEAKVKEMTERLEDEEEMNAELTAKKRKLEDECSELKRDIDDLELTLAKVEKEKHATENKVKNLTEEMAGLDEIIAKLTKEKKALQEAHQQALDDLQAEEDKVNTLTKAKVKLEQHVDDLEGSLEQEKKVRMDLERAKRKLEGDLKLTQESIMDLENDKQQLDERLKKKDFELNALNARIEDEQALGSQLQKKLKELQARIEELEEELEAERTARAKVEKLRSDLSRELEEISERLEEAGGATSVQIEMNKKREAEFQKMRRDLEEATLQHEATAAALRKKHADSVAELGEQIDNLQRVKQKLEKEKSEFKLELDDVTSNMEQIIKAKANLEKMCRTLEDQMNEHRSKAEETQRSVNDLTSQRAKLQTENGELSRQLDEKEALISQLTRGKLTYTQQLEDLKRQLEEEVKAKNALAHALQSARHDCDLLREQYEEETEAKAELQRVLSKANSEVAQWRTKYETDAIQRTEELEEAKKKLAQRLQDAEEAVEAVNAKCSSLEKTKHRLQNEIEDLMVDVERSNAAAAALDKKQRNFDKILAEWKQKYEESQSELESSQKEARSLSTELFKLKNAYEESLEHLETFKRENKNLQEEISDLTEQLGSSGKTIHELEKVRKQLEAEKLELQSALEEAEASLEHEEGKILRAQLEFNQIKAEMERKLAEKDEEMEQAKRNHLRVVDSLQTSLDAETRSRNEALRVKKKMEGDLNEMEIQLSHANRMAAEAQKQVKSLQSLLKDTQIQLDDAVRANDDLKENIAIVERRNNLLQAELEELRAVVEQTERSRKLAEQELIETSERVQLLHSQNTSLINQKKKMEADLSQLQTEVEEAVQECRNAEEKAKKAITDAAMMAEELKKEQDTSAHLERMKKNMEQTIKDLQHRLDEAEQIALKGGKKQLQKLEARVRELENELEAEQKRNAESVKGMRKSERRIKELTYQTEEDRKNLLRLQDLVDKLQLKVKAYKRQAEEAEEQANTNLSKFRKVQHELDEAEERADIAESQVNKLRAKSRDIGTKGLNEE

Row | SMILES | Porcine Ventricle EC25 (Y75 value) [1] | Porcine Atria EC25 (Y75 value) [2] | Rabbit Psoas EC25 (Y75 value) [3]
1 | C[C@H](NC(=O)Cn1c(=O)[nH]c2ccccc2c1=O)c1ccc(Cl)cn1 (single isomer, unassigned) [Compound 105] | 94.03 µM | 11.59 µM | 16.519 µM
2 | C[C@H](NC(=O)Cn1c(=O)[nH]c2ccccc2c1=O)c1cccc(Cl)c1 (single isomer, unassigned) [Compound 514] | – | 100 µM | 100 µM
3 | C[C@@H](NC(=O)Cn1c(=O)[nH]c2cccc(C#N)c2c1=O)c1ncc(C#N)cc1F (single isomer, unassigned) [Compound 205] | 100 µM | 5.445 µM | 9.128 µM
4 | C[C@H](NC(=O)C1(n2c(=O)[nH]c3ccccc3c2=O)CCCCCC1)c1ccc(F)cc1F [Compound 505, (S)-N-(1-(2,4-difluorophenyl)ethyl)-1-(2,4-dioxo-1,4-dihydroquinazolin-3(2H)-yl)cycloheptane-1-carboxamide] | 100 µM | 100 µM | 100 µM
5 | C[C@@H](NC(=O)Cn1c(=O)[nH]c2ccc(F)c(F)c2c1=O)c1cnc(C#N)nc1 (single isomer, unassigned) [Compound 5] | 100 µM | 0.235 µM | 100 µM
6 | Cc1c(F)ccc2[nH]c(=O)n(CC(=O)N[C@H](C)c3ncc(C#N)cc3F)c(=O)c12 (single isomer, unassigned) [Compound 3007] | 0.81 µM | 0.34 µM | 0.36 µM
7 | C[C@H](NC(=O)Cn1c(=O)[nH]c2ccncc2c1=O)c1ccc(F)cc1F [Compound 141, (S)-N-(1-(2,4-difluorophenyl)ethyl)-2-(2,4-dioxo-1,4-dihydropyrido[4,3-d]pyrimidin-3(2H)-yl)acetamide] | 61.78 µM | 3.009 µM | 1.48 µM
8 | C[C@@H](NC(=O)Cn1c(=O)[nH]c2ccc(F)c(F)c2c1=O)c1ncc(C#N)cn1 (single isomer, unassigned) [Compound 11] | 100 µM | 6.642 µM | 50.791 µM
9 | CC(C)N(C(=O)Cn1c(=O)[nH]c2ccccc2c1=O)C(C)c1ccc(F)cc1F (stereo not shown) [Compound 507, N-(1-(2,4-difluorophenyl)ethyl)-2-(2,4-dioxo-1,4-dihydroquinazolin-3(2H)-yl)-N-isopropylacetamide] | 100 µM | 100 µM | 63.841 µM
10 | C[C@H](NC(=O)Cn1c(=O)[nH]c2ccc(F)c(F)c2c1=O)c1cnc(C#N)nc1 (single isomer, unassigned) [Compound 6] | 0.692 µM | 0.111 µM | 0.113 µM
11 | CC(NC(=O)Cn1c(=O)[nH]c2ccccc2c1=O)c1ccncn1 (stereo not shown) [Compound 97, 2-(2,4-dioxo-1,4-dihydroquinazolin-3(2H)-yl)-N-(1-(pyrimidin-4-yl)ethyl)acetamide] | 100 µM | 100 µM | 100 µM
12 | C[C@H](NC(=O)Cn1c(=O)[nH]c2ccc(Cl)cc2c1=O)c1ccc(F)cc1F [Compound 104, (S)-2-(6-chloro-2,4-dioxo-1,4-dihydroquinazolin-3(2H)-yl)-N-(1-(2,4-difluorophenyl)ethyl)acetamide] | 0.9868 µM | 0.0488 µM | 0.086 µM
13 | C[C@@H](NC(=O)Cn1c(=O)[nH]c2cccc(C#N)c2c1=O)c1ncc(C#N)cn1 (single isomer, unassigned) [Compound 203] | 16.31 µM | 2.399 µM | 3.687 µM
14 | C[C@@H](NC(=O)Cn1c(=O)[nH]c2cccc(F)c2c1=O)c1ncc(C#N)cn1 (single isomer, unassigned) [Compound 201] | 100 µM | 42.2 µM | 52.35 µM
15 | COCCOCn1c(=O)n(CC(=O)N[C@@H](C)c2ccc(F)cc2F)c(=O)c2cc(F)ccc21 [Compound 403, (S)-N-(1-(2,4-difluorophenyl)ethyl)-2-(6-fluoro-1-((2-methoxyethoxy)methyl)-2,4-dioxo-1,4-dihydroquinazolin-3(2H)-yl)acetamide] | 100 µM | 100 µM | 100 µM
16 | Cc1c(F)ccc2[nH]c(=O)n(CC(=O)N[C@@H](C)c3ncc(C#N)cc3F)c(=O)c12 (single isomer, unassigned) [Compound 3008] | 0.09 µM | 0.06 µM | 0.01 µM
17 | CC(C)C[C@H](C(=O)N[C@@H](C)c1ncc(C#N)cc1F)n1c(=O)[nH]c2ccccc2c1=O (single isomer, unassigned) [Compound 30] | 2.002 µM | 100 µM | 23.886 µM
18 | Cc1c(F)ccc2[nH]c(=O)n(CC(=O)N[C@@H](C)c3ncc(C#N)cn3)c(=O)c12 (single isomer, unassigned) [Compound 3006] | 0.62 µM | 0.29 µM | –
19 | C[C@H](NC(=O)Cn1c(=O)[nH]c2ccc(F)c(F)c2c1=O)c1ncc(C#N)cn1 (single isomer, unassigned) [Compound 12] | 3.176 µM | 1.271 µM | 1.571 µM
20 | C[C@H](NC(=O)Cn1c(=O)[nH]c2cccc(C#N)c2c1=O)c1ncc(C#N)cc1F (single isomer, unassigned) [Compound 206] | 1.018 µM | 0.2933 µM | 0.214 µM
